For 42 sequences, binding signal results are on record in PMC7819943, “Rice protein-binding microarrays: a tool to detect cis-acting elements near promoter regions in rice”.

The list shows a part of the results.

The experiment addresses T1, OsWOX13 (Oryza sativa, UniProt Q5QMM3 1-267).
T1 sequence: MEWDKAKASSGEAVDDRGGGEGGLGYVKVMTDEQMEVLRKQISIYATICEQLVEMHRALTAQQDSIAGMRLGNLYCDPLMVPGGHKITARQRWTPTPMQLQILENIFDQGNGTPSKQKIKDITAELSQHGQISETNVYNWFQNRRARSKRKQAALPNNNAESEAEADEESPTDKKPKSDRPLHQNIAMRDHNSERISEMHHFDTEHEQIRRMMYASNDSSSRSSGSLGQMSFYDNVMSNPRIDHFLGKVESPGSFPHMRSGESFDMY
Briefly: protein-binding microarray (RPBM); PBS, 2% BSA, 51.3 ng/ul salmon testes DNA, 50 uM zinc acetate, 200 nM TF, 25 C, 1 h; high values mean tight binding. The settings on record: protein: recombinant; tags: N-terminal polyhistidine and DsRed monomer fusion (pET32a); label: CyDye5-dUTP incorporated in the synthesized complementary strand; 3' TTTTT single-stranded linker to array surface; dsDNA, one strand shown. The method in brief: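 Binding signal is defined as the fluorescence intensity of each feature in arbitrary units, read on an Axon 4000B scanner. Transcription factors with N-terminal polyhistidine and DsRed fusions came from E. coli BL21-CodonPlus and were purified on Ni–NTA. They were incubated at 200 nM for 1 h at 25 °C on a custom Agilent array that had been made double-stranded with Cy5-dUTP, with 50 µM zinc acetate present, and the array was washed.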
For “TAAGATTGAGGAGATTTGTTACTCCCGTAGTCAGGGGCCGCGGAGTCACCTAGTGCAG”, the binding signal was 19300 fluorescence intensity (a.u.).

For “ATTAACTGTTTTGTTTGGTTGGAAGAGATGGGAATTTTGGCGGAGTCACCTAGTGCAG”, the binding signal is 5740 fluorescence intensity (a.u.).

With “AACCATAATTTAATATGTGTGTGAGACTTCTCTTTCCCGGCGGAGTCACCTAGTGCAG”, the binding signal was 20700 fluorescence intensity (a.u.).

As for “AACCATAAACAAATTAGCACAGGAGACTAATGCAACCCAGCGGAGTCACCTAGTGCAG”, the binding signal was 6580 fluorescence intensity (a.u.).

For the sequence “GCCTTATTTGCACTGATTTTGATAGTTGAGGAACCCGTTGCGGAGTCACCTAGTGCAG”, the binding signal is 11200 fluorescence intensity (a.u.).

In the case of “CATCACTATAGAGTATAAATTGATGGCCGGTGATCAGTGGCGGAGTCACCTAGTGCAG”, the binding signal was 6650 fluorescence intensity (a.u.).

In the case of “CGCAAACTGCGATTCAATTCAATCACTGGTATTACGGCTACGGAGTCACCTAGTGCAG”, the binding signal is 31300 fluorescence intensity (a.u.).

“TGGAGGCACATTAATTAATTATTATCATGATCCATTTGCCCGGAGTCACCTAGTGCAG”: the binding signal was 13000 fluorescence intensity (a.u.).

Take “ACGGAATGAACACTAATTTACTTAATACATAGAACCACGGCGGAGTCACCTAGTGCAG”: the binding signal is 19400 fluorescence intensity (a.u.).

With “GTGACGACCCGTTAATTATAGGCATATTAGAGGCCGTCACCGGAGTCACCTAGTGCAG”, the binding signal was 7910 fluorescence intensity (a.u.).

For the sequence “TCCATATTGTCTATTATTGCTTTCTGCAAAGAACTCTACTCGGAGTCACCTAGTGCAG”, the binding signal was 3450 fluorescence intensity (a.u.).

On to “GCTAAACAGAATTGAGTACCTACTCCCTCTGAACCTGTAACGGAGTCACCTAGTGCAG”, for which the binding signal is 10600 fluorescence intensity (a.u.).

For the sequence “TGCTGACAGCAAGTGTCGAGGCTGATCATGATCACTGCGGCGGAGTCACCTAGTGCAG”, the binding signal was 4960 fluorescence intensity (a.u.).

Consider “GGCTGACTGGACAGGCTGACATGTGGGGCCACGTGGGTCCCGGAGTCACCTAGTGCAG”, for which the binding signal is 11500 fluorescence intensity (a.u.).

As to “TGAAATGTAATTGTGATTTTATCTTGAAATGATCCGATGGCGGAGTCACCTAGTGCAG”, the binding signal is 31400 fluorescence intensity (a.u.).

In the case of “AAAATAGTTAATACTTAATTAATCATGCAATAATACAAGCCGGAGTCACCTAGTGCAG”, the binding signal is 7300 fluorescence intensity (a.u.).

With “CCGGATTGGGATCCTCTGACTTTACTCAGAGAGCTATAGTCGGAGTCACCTAGTGCAG”, the binding signal is 6180 fluorescence intensity (a.u.).

For “GGCCCAATTGACAAGGTGGGCTTTCTCCTCGTGGCCCACACGGAGTCACCTAGTGCAG”, the binding signal was 3640 fluorescence intensity (a.u.).

In the case of “CACTATTAATTACTCGTACATCATATTATCTATCCATTACCGGAGTCACCTAGTGCAG”, the binding signal was 13200 fluorescence intensity (a.u.).

For “TTTGAAAATTTAATTGCAACGAATTTAATGGTGCAATCGGCGGAGTCACCTAGTGCAG”, the binding signal was 15900 fluorescence intensity (a.u.).

Turning to “AGCTAAATTTTGATCCCATGAATTTTCTATACTCTAGCAGCGGAGTCACCTAGTGCAG”, the binding signal was 7030 fluorescence intensity (a.u.).

Turning to “TTATTTAATTTGGCATGGTTGACAGGATCAGACTTATTCACGGAGTCACCTAGTGCAG”, the binding signal was 13100 fluorescence intensity (a.u.).

With “ATTGTGATGGAATTCGTTAGTTTTGAAGTTGCAAACTGCACGGAGTCACCTAGTGCAG”, the binding signal is 4110 fluorescence intensity (a.u.).

“CCATTAATTTCTACGTAAGCATTCGTAGCTATGGAGGAGTCGGAGTCACCTAGTGCAG”: the binding signal is 10300 fluorescence intensity (a.u.).

Turning to “AAAATGACTGAAATTTGGATCTAAATTTTGGATCTAAACACGGAGTCACCTAGTGCAG”, the binding signal was 23400 fluorescence intensity (a.u.).

As to “AATTGATGACTCTGTAATGCAGGTCAAGTCGATCAGGTAACGGAGTCACCTAGTGCAG”, the binding signal was 3470 fluorescence intensity (a.u.).

For “CAGCACATGATTAGAATATCATCTCAATCTCAATCTGTACCGGAGTCACCTAGTGCAG”, the binding signal is 21600 fluorescence intensity (a.u.).

As to “CGGATGATTATTTGTTTCCTAGACAAACAGTCAAACACACCGGAGTCACCTAGTGCAG”, the binding signal is 26700 fluorescence intensity (a.u.).

Turning to “TTTTCACGATAATTATGTGGTAACCGCCAAACCATGGGGTCGGAGTCACCTAGTGCAG”, the binding signal was 15400 fluorescence intensity (a.u.).

As to “TTCAAGTAATTGTCATGACGCTTACCTCTATAAGAAGGCACGGAGTCACCTAGTGCAG”, the binding signal is 10000 fluorescence intensity (a.u.).

As for “GCATATACAATTTGGCCCAAATTAACTTGATTTATCTGGGCGGAGTCACCTAGTGCAG”, the binding signal is 8350 fluorescence intensity (a.u.).

In the case of “TCAAGTGATTTTGCCTAGACACAAGAGTCCACGTGGTTGGCGGAGTCACCTAGTGCAG”, the binding signal was 5480 fluorescence intensity (a.u.).

As to “CGGATTAATTAGGCTTAATAAATTCATCTCGCAGTTTCCTCGGAGTCACCTAGTGCAG”, the binding signal is 50800 fluorescence intensity (a.u.).

Consider “GTGATTTGCACACTTGATCTAACACAAGTTTGTTCTCGCTCGGAGTCACCTAGTGCAG”, for which the binding signal is 6300 fluorescence intensity (a.u.).

As to “GGTGAATTGAATGGTTGATTGCCTATCTCATCTTCCGCAGCGGAGTCACCTAGTGCAG”, the binding signal was 64100 fluorescence intensity (a.u.).

Turning to “TAGATTTAATTACAACGAATACAACAGAGCAATCGGATTGCGGAGTCACCTAGTGCAG”, the binding signal is 14400 fluorescence intensity (a.u.).

Take “TGACAAATAATTAATTGTACATATTAGAAGTAGTATAAAGCGGAGTCACCTAGTGCAG”: the binding signal is 23600 fluorescence intensity (a.u.).

In the case of “ATCTGTAAGTGATATGTATTAATTAAGAAATCATATCGGACGGAGTCACCTAGTGCAG”, the binding signal is 7170 fluorescence intensity (a.u.).

On to “ATATAAAATGTGACCGACTGATTGTATAAATAGGATAGAACGGAGTCACCTAGTGCAG”, for which the binding signal was 5410 fluorescence intensity (a.u.).

With “ACTACAGATTGCAACTAAAGTATTCCGTTCATCCTCCTACCGGAGTCACCTAGTGCAG”, the binding signal was 5330 fluorescence intensity (a.u.).

Consider “CTAATAAATTAGGTACCACCGTATTATGTACTTCCTCCATCGGAGTCACCTAGTGCAG”, for which the binding signal is 11700 fluorescence intensity (a.u.).

As to “ATTATTAATTTCCCTTCCTATTTGAGTGCTTCAAAATAAACGGAGTCACCTAGTGCAG”, the binding signal was 3690 fluorescence intensity (a.u.).
